# Assay results from the supplement of paper PMC10126150.
# Values marked as one replicate rest on one cluster of the flow cell; about a third of the high ones do not repeat.
# System: ATP
# Assay: switch fluorescence ratio, 500 uM ATP over buffer (Cy3 cluster intensity, sum of 5 cycles each) (fold (ratio)); higher = stronger signal-on switching upon ATP binding; sequences stand for … in TCGTCGGCAGCGTCAGATGTGTATAAGAGACAGTTTTTTTTTTTTTTTTTTTTTTTTT…TC
# Details: aptamer strand: ATP DNA aptamer (quencher-CACCTGGGGGAGTATTGCGGAGGAAGG + anchor), 100 nM annealed; ATP concentration: 500 uM; one replicate
# Method in brief: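 The quencher-labelled ATP aptamer, at 100 nM, was annealed to Cy3-labelled switching-strand clusters on a modified Illumina MiSeq flow-cell. The clusters were imaged in selection buffer, then after 15 min with 500 uM ATP at 22 °C, and this buffer/ATP cycle ran five times with NaOH stripping and re-annealing between runs. Per-cluster fluorescence ratios, summed target-cycle over summed buffer-cycle Cy3 intensity, were averaged per switch-domain sequence. Clusters outside 100-1000 RFU were excluded.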
# 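Further: ATP exposure 15 min at 22 °C before imaging.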
row,Sequence,switch fluorescence ratio
1,ATCAGGCACG,1.05
2,CAGCGGTCGA,1.01
3,TGGTTGCTA,0.977
4,TTAGCATTGA,1.09
5,AACTTGTGCG,1.04
6,TTTTCTAGTC,1.06
7,TTTAGTGCAC,1.03
8,GTGAAGCCGG,1.03
9,TACACGACTA,1.16
10,TGCTGACGGC,0.994
11,AGACTTTAAT,1.03
12,CACATTATAA,0.995
13,CTTCATCCAG,1.94
14,ATTCTCCCGG,1.37
15,CGTAGAGCT,0.977
16,AAAGCGATGT,0.984
17,TCTTGATAGG,0.989
18,AGGAAAACTT,1.07
19,ATCGGTGTTT,0.999
20,TATTATGATT,0.995
21,AGGCTAAAGT,0.952
22,CATATACCGT,1.03
23,TGCGGGGAG,0.973

row,Sequence,switch fluorescence ratio
1,ATTTGGTGAT,0.986
2,TGCAGATCT,1
3,CGAAAATCCA,0.972
4,GCCGGGTTGT,0.973
5,AGATATATTT,1
6,TGTGACCTTT,0.995
7,TGTACGAAAG,1.03
8,ACAGGACGAG,1.04
9,AAACTGATGG,1.02
10,CATAGACGAA,0.97
11,CGCTGACATA,1.09
12,TGACAGTACT,1.34
13,AATGCCTAGG,1.03
14,TGAAGAATTT,1
15,GATCGAGATG,1.06
16,TAGGTCGAGC,1
17,CATCGGTCAA,3.23
18,GTGGTGAGGG,0.991
19,ATGTGGAGTG,0.981
20,ACGACCTACT,1.58
21,TACATCTTTA,1.01
22,ACTAACGACA,1.31
23,CGATATTCGC,1.05

row,Sequence,switch fluorescence ratio
1,ATACGCGCTG,0.985
2,GGCTTGGTGA,0.986
3,TATAGGCAGC,0.989
4,GCACCCTCTG,1.03
5,TGGTTCCAAT,0.993
6,TAAGTGCAAA,0.956
7,ATATCTTCGT,1.02
8,ACCATCGCGA,1.06
9,CGAGCGGCGT,1.03
10,CATGCTCGTC,1.05
11,GCTTGTTAGT,1.02
12,ACGTTTGGGA,1.04
13,TACATTGTAT,0.988
14,GCTATTGGTT,0.946
15,GTTTAGGTGA,0.988
16,GACAATCGGT,1.03
17,ACGAGGGAAG,0.987
18,TTCGCGGGCC,1.04
19,TAAGGGACTT,0.997
20,ACGATGCGGT,1.32
21,ATGTTGGTTA,0.957
22,TAATTCGTCA,0.987
23,GTCGCTTCGC,1.06

row,Sequence,switch fluorescence ratio
1,AAATGATTCA,1.01
2,CGTCTTAGGC,1.12
3,TTCGTAAAAT,0.993
4,CTAAAAGTCC,1.01
5,TCAGTTTCAA,1.03
6,TTATTCGAAA,1
7,AAGGGTAGAG,1
8,AGCAGACTTG,0.998
9,CAGGAGTG,0.963
10,GTCTTGCGCT,1.01
11,CAATCCTTAG,1.02
12,TAGCTGGGTT,0.988
13,CCAATGCACG,1.1
14,TAGTCTTCGC,1.15
15,GACGTTAGGA,0.975
16,GATACGGAG,1.01
17,AGCCGTTGCA,1.05
18,GCGGCCGGAA,1.01
19,TCACCCACAG,1.45
20,TAACTAGGGA,0.979
21,GCACGTAAA,1.22
22,TATTCGGACT,1.02
23,AACTTATCGT,0.986

row,Sequence,switch fluorescence ratio
1,CATAAGCA,1.09
2,GGGGGCGCAG,1.01
3,TATCGATGGG,1.02
4,ATGCACGGTA,1.13
5,TTTCCGTGCA,0.971
6,GTCAGCACTC,1.41
7,CGTCGGTCCT,0.978
8,GCCAGGAATG,1.02
9,TTGGAGCTGG,1.04
10,ACAGGTATGT,1.01
11,TGAGGGTCCG,1.03
12,CGTGACGGA,0.978
13,TCCATCAGGC,1.09
14,AGGTAGCGCG,0.992
15,TGTACGAATG,0.996
16,AGCTGTATTC,0.97
17,TAGGTTAACA,1.04
18,GGTTATTACT,1.02
19,GCCATGCCCG,1.04
20,TGGAGCAGCG,1.18
21,GGTGTGCTCA,0.929
22,CAAGAAGCGA,1.03
23,GCATCGAGGT,1.02

row,Sequence,switch fluorescence ratio
1,TCGGAGTCAC,1.45
2,ACTGTGCGGC,1.07
3,ATGTGCACAA,0.985
4,ATTCGCACAG,1.11
5,GACGGTGCGC,1.1
6,CAGGTACCA,1.06
7,TATTGGAGCC,1.08
8,ATTTAGACCG,0.951
9,CATATAGCCG,0.922
10,CAACGACAAA,1.06
11,ATCGACAGGT,1.1
12,ATATTGGACA,1.05
13,CCGCAGGTAA,1.58
14,AAGGGTGAGA,0.996
15,GGCCGAAGAC,1.21
16,CGCTGCAACT,2.28
17,CTCCTAAGCT,1.13
18,AAATACGAAC,1.46
19,CAAAAGAATT,0.984
20,GACTGGGGTG,1.05
21,GGTCATGGG,0.957
22,GGATCTGGCA,1.01
23,GGAACCCATC,1.03

row,Sequence,switch fluorescence ratio
1,GACCCCCCGT,0.977
2,ATCAAAGGAG,1
3,AGCTGATGTT,1.03
4,CCGAACAGGT,1.06
5,CCAGAAGAAG,0.996
6,AGGCCAGCAT,1.01
7,CCGTTTAGAA,1.08
8,GGTAAGGATT,0.965
9,AGGTTATGGA,0.967
10,TGCAGCTAAC,2.67
11,GGGTCTTAAG,0.98
12,GGTGAGCCA,0.978
13,CGGGCCCTGC,0.99
14,AGGTTAGTTC,1.29
15,TGTATTGAGA,0.994
16,AGACGACTAT,1.12
17,CCTGTGACTA,1.12
18,GAGGCAAGCC,1.13
19,ACATCGAACG,1.05
